For assay [1], the target named is T1, EGFR-L858R/T790M(DM) (Homo sapiens, UniProt P00533, L858R/T790M). Conditions: ratio of enzymatic IC50 EGFR(WT) to EGFR-L858R/T790M(DM).
The target of assay [2] is T1, EGFR-L858R/T790M(DM). As to the kind of experiment: biochemical.

These results are taken from patent US10329277B2, “N-(2-((2-(dimethylamino)ethyl)(methyl)amino)-4-methoxy-5-((4-(3-methyl-2-OXO-2,3-dihydro-1h-benzo[d]imidazol-1-yl)pyrimidin-2-yl)amino)phenyl)acrylamide hydrochloride as an inhibitor of epidermal growth factor receptor activity” (CHIA TAI TIANQING PHARMACEUTICAL GROUP CO., LTD., priority 2015, dated 2019).

The term IC50 denotes the point on the concentration scale where inhibition reaches its midpoint. Read a high IC50 as a need for much substance.

SMILES strings stand for the structures. Counter-ions that a name gives are not always drawn.

Regarding `C=CC(=O)Nc1cc(Nc2nccc(-n3c(=O)n(C)c4ccccc43)n2)c(OC)cc1N(C)CCN(C)C` [Example 1, N-(2-((2-(dimethylamino)ethyl)(methyl)amino)-4-methoxy-5-(4-(3-methyl-2-oxo-2,3-dihydro-1H-benzo[d]imidazol-1-yl)pyrimidin-2-ylamino)phenyl)acrylamide Hydrochloride], the WT/DM on EGFR-L858R/T790M(DM) [1] stood at 12.6. The IC50 on EGFR-L858R/T790M(DM) [2] was 0.72 nM.
As for `C=CC(=O)Nc1cc(Nc2nccc(-n3c(=O)[nH]c4ccccc43)n2)c(OC)cc1N(C)CCN(C)C` [Example 2, N-(2-((2-(dimethylamino)ethyl)(methyl)amino)-4-methoxy-5-(4-(2-oxo-2,3-dihydrobenzo[d]imidazol-1-yl)pyrimidin-2-ylamino)phenyl)acrylamide Hydrochloride], the WT/DM on EGFR-L858R/T790M(DM) [1] came to 6.0. On EGFR-L858R/T790M(DM) [2], inhibition was half-maximal at 0.43 nM (IC50).
On the same counts, the results for `C=CC(=O)Nc1cc(Nc2ncc(Cl)c(-n3c(=O)n(C)c4ccccc43)n2)c(OC)cc1N(C)CCN(C)C` [Example 3, N-(5-(5-chloro-4-(3-methyl-2-oxo-2,3-dihydro-1H-benzo[d]imidazol-1-yl)pyrimidin-2-ylamino)-2-((2-(dimethylamino)ethyl)(methyl)amino)-4-methoxyphenyl) acrylamide Hydrochloride] are 42.6 and 4.61 nM.
In the case of `C=CC(=O)Nc1cc(Nc2ncc(Cl)c(-n3c(=O)[nH]c4ccccc43)n2)c(OC)cc1N(C)CCN(C)C` [Example 4, N-(5-(5-chloro-4-(2-oxo-2,3-dihydro-1H-benzo[d]imidazol-1-yl)pyrimidin-2-ylamino)-2-((2-(dimethylamino)ethyl)(methyl)amino)-4-methoxyphenyl) acrylamide Hydrochloride], the WT/DM on EGFR-L858R/T790M(DM) [1] is on record as 17.9. On EGFR-L858R/T790M(DM) [2], the half-inhibitory concentration (IC50) was determined as 1.15 nM.
Taken in the same sequence, the figures for `C=CC(=O)Nc1cc(Nc2nccc(-n3c(=O)oc4ccccc43)n2)c(OC)cc1N(C)CCN(C)C` [Example 5, N-(2-((2-(dimethylamino)ethyl)(methyl)amino)-4-methoxy-5-(4-(2-oxobenzo[d]oxazol-3(2H)-yl)pyrimidin-2-ylamino)phenyl) acrylamide Hydrochloride] were 19.8 and 2.27 nM.
In the case of `COC/C=C/C(=O)Nc1cc(Nc2nccc(-n3c(=O)n(C)c4ccccc43)n2)c(OC)cc1N(C)CCN(C)C` [Example 7, (E)-N-(2-((2-(dimethylamino)ethyl)(methyl)amino)-4-methoxy-5-(4-(3-methyl-2-oxo-2,3-dihydro-1H-benzo[d]imidazol-1-yl)pyrimidin-2-ylamino)phenyl)-4-methoxybut-2-enamide], on EGFR-L858R/T790M(DM) [1], the WT/DM was determined as 39.7. This compound had an IC50 against EGFR-L858R/T790M(DM) [2] of 4.12 nM.
On the same counts, the results for `C=CC(=O)Nc1cc(Nc2nccc(-n3c(=O)[nH]c4cc(C)ccc43)n2)c(OC)cc1N(C)CCN(C)C` [Example 9, N-(2-((2-(dimethylamino)ethyl)(methyl)amino)-4-methoxy-5-(4-(5-methyl-2-oxo-2,3-dihydrobenzo[d]imidazol-1-yl)pyrimidin-2-ylamino)phenyl)acrylamide Hydrochloride] are 6.1 and 0.64 nM.
Taken in the same sequence, the figures for `C=CC(=O)Nc1cc(Nc2nccc(-n3c(=O)n(C)c4cc(F)ccc43)n2)c(OC)cc1N(C)CCN(C)C` [Example 10, N-(2-((2-(dimethylamino)ethyl)(methyl)amino)-5-(4-(5-fluoro-3-methyl-2-oxo-2,3-dihydrobenzo[d]imidazol-1-yl)pyrimidin-2-ylamino)-4-methoxyphenyl) acrylamide Hydrochloride] were 18.4 and 0.58 nM.
Regarding `C=CC(=O)Nc1cc(Nc2nccc(-n3c(=O)[nH]c4cc(F)ccc43)n2)c(OC)cc1N(C)CCN(C)C` [Example 11, N-(2-((2-(dimethylamino)ethyl)(methyl)amino)-5-(4-(5-fluoro-2-oxo-2,3-dihydrobenzo[d]imidazol-1-yl)pyrimidin-2-ylamino)-4-methoxyphenyl)acrylamide Hydrochloride], on EGFR-L858R/T790M(DM) [1], the WT/DM is recorded as 4.2. Also, the midpoint of inhibition at EGFR-L858R/T790M(DM) [2], the IC50, lay at 0.67 nM.
Regarding `C=CC(=O)Nc1cc(Nc2nccc(-n3c(=O)n(C)c4ccccc43)n2)c(OC)cc1N(C)CCNC` [Example 12, N-(4-methoxy-2-(methyl(2-(methylamino)ethyl)amino)-5-(4-(3-methyl-2-oxo-2,3-dihydrobenzo[d]imidazol-1-yl)pyrimidin-2-ylamino)phenyl)acrylamide Hydrochloride], the WT/DM on EGFR-L858R/T790M(DM) [1] is listed as 10.5. On EGFR-L858R/T790M(DM) [2], this compound came in with a half-maximal inhibitory concentration (IC50) of 0.5 nM.
